Experimental data from PubChem BioAssay (NCI).
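Growth conditions: 96-well plates. Treatment: test compound, 48 hours, 5 concentrations. Analysis: linear interpolation between bracketing concentrations; unreached endpoints set to highest concentration. The concentration for 50% growth inhibition is given as GI50.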 Certain results were filed several times, with different values. The other results are left out here. The source may hold further records. For some assays here: The tests behind the records often covered other concentration ranges, which the source does not state; a value can be the end of its range.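 At the TGI there is no net growth.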 For some assays here: Values given together are repeated measurements across runs, samples, wells, individuals or studies. A tag in brackets gives the origin of a value. Letters count within one entry.

Key:
Experiment in all cases: NCI-60 cell line screen, 48 h
U251 CNS = system: U251 CNS
HOP-62 NSCLC = system: HOP-62 NSCLC
K-562 leukemia = system: K-562 leukemia
MCF7 breast = system: MCF7 breast
OVCAR-5 ovarian = system: OVCAR-5 ovarian
SF-295 CNS = system: SF-295 CNS
SK-MEL-28 melanoma = system: SK-MEL-28 melanoma
SR leukemia = system: SR leukemia
COLO 205 colon = system: COLO 205 colon
HCT-116 colon = system: HCT-116 colon
MDA-N = system: MDA-N
SF-539 CNS = system: SF-539 CNS
BT-549 breast = system: BT-549 breast
LOX IMVI melanoma = system: LOX IMVI melanoma
UACC-257 melanoma = system: UACC-257 melanoma
A549 NSCLC = system: A549 NSCLC
CCRF-CEM leukemia = system: CCRF-CEM leukemia
SF-268 CNS = system: SF-268 CNS
SNB-19 CNS = system: SNB-19 CNS
CAKI-1 renal = system: CAKI-1 renal
HCT-15 colon = system: HCT-15 colon
HOP-92 NSCLC = system: HOP-92 NSCLC
HT29 colon = system: HT29 colon
RPMI-8226 leukemia = system: RPMI-8226 leukemia
RXF 393 renal = system: RXF 393 renal

COC12C(COC(=O)NCCO)C3=C(C(=O)C(C)=C(N)C3=O)N1CC1NC12 (stereo not given)
TGI (U251 CNS): 23.4 µM and > 264 µM

CC[C@H](C)[C@H](NC(=O)[C@H]1CCCCN1C)C(=O)N(C)[C@H](C[C@@H](OC(C)=O)c1nc(C(=O)NC23CC(C(=O)OC)(C2)C3)cs1)C(C)C
TGI (HOP-62 NSCLC): 84 nM and > 32.5 µM
GI50 (K-562 leukemia): 0.253 nM and 3.25 nM
GI50 (MCF7 breast): 0.267 nM and 3.25 nM
GI50 (OVCAR-5 ovarian): 31.5 nM and 531 nM
TGI (SF-295 CNS): 46.1 nM and > 32.5 µM
GI50 (SK-MEL-28 melanoma): 35.6 nM and 5.87 µM
GI50 (SR leukemia): 0.0649 nM and 3.25 nM

O=C1CC(c2cccc(Cl)c2)Nc2ccc(N3CCCC3)cc21 (stereo not given)
TGI (COLO 205 colon): 657 nM and 17.2 µM
TGI (HCT-116 colon): 3.24 µM and > 100 µM
TGI (MDA-N): 32.1 nM and > 100 µM
TGI (SF-539 CNS): 89.7 nM and > 100 µM

CCCCCCCCCCCC[C@@H](O)[C@H]1CC[C@H]([C@H](O)CC[C@H](O)[C@@H]2CC[C@@H](CCCCCCCC3=C[C@H](C)OC3=O)O2)O1
TGI (BT-549 breast): 1.11 µM and > 50 µM
TGI (LOX IMVI melanoma): 4.96 µM and > 50 µM
TGI (UACC-257 melanoma): 4.84 µM and > 50 µM

CC(=O)O[C@H]1CC2C(C3CC[C@H](C(C)CCC(=O)O)[C@]31C)[C@H](OC(C)=O)C[C@@H]1CC3(CC[C@]21C)OOC1(CCC(C)CC1)OO3 (stereo not given in full)
TGI (LOX IMVI melanoma): > 100 µM [sample A] and 4.68 µM [sample B]

O=[N+]([O-])c1cccc2nc3ccccc3c(NCCCCCNc3c4ccccc4nc4cccc([N+](=O)[O-])c34)c12
TGI (A549 NSCLC): 2.14 µM and 95.7 nM
TGI (CCRF-CEM leukemia): 424 nM and 27.5 nM
TGI (HOP-62 NSCLC): 343 nM and 24.2 nM
TGI (LOX IMVI melanoma): 591 nM and 29 µM
TGI (MCF7 breast): 184 nM and 13.8 nM
TGI (SF-268 CNS): 506 nM and 37.3 nM
TGI (SNB-19 CNS): 1.74 µM and 12.9 nM
TGI (U251 CNS): 914 nM and 36.2 nM

COc1cc2nnc3c4cccnc4[nH]c3c2cc1OC
TGI (CAKI-1 renal): 4.51 µM and 430 nM
GI50 (CCRF-CEM leukemia): > 50 µM and 34.7 nM
TGI (CCRF-CEM leukemia): > 50 µM and 149 nM
TGI (HCT-116 colon): 50 µM and 333 nM
TGI (HCT-15 colon): 50 µM and 3.88 µM
TGI (HOP-92 NSCLC): 50 µM and 1.75 µM
TGI (HT29 colon): 50 µM and 3.75 µM
TGI (RPMI-8226 leukemia): 50 µM and 986 nM
TGI (RXF 393 renal): 50 µM and 3.19 µM
TGI (SR leukemia): 50 µM and 262 nM
TGI (U251 CNS): 50 µM and 4.38 µM
